Laboratory results: the RNAGym collection of RNA variant scans (doi:10.7554/elife.90254)
The source gives no read counts; variants with many changes may rest on few reads.

B1: LINE1-full (parent)
chain: UACGUAGGUGGUUUUCCCCUGAUAGUGCUAAGGGGGCCUGGAAGUUUGGACUGGGCAGAGCUCAACACAGCGUGGCAAAGUGGCUGUGGCUAGACUGCCUCUCUGGAUUCCUCGUCACUCAGCAGGGCAUCUCUGAGAGAAAUGCC

Variants of: B1
Experiment: self-cleavage, relative activity (ratio to wild type); higher = more cleavage; in vitro, sequencing; the parent is a self-cleaving ribozyme

Variant | self-cleavage
UACGUAGGUGGUUUUCCCCUGAUAGUGCUAAGGGGGCCUGGAAGUACGGACUGGGCAGGGCUCAACACAGCGUGGCAAAGAGGCUGUGGCUAGACUGCCUCUCUGGAUUCCUCGUCACUCAGCAGGGCAUCUCUGAGAGAAAUGCC [U46A U47C A59G U81A] | 0.25
UACGUAGGUGGUUUUCCCCUGAUAGUGCUAAGGGGGCCUGGAAGUACGGACUGGGCAGAGCUCAACACAGCGAGGCAAAGUGGCUGUGGCUAGACUGCCUCUCUGGAUUCCUCGUCACUCAGCAGGGCAUCUCUGAGAGAAAUGCC [U46A U47C U73A] | 1.25
UACGUAGGUGGUUUUCCCCUGAUAGUGCUAAGGGGGCCUGGAAGUAUGGACCGGGCAGAGCUCAACACAGCGUGGCAAAGUGGCUGUGGCUAGACUGCCUCUCUGGCUUCCUCGUCACUCGGCAGGGCAUCUCUGAGAGAAAUGCC [U46A U52C A107C A121G] | 1.84
UACGUAGGUGGUUUUCCCCUGAUAGUGCUAAGGGGGCCUGGAAGUAUGGACCGGGCAGAGCUCAACACAGCGUGGCAAAGUGGCUGUGGCUAGACUGCCUCUCUGGAUUCCUCGUCACUCAGCAGGGCAUCUCUGAGGGAAAUGCC [U46A U52C A138G] | 1.62
UACGUAGGUGGUUUUCCCCUGAUAGUGCUAAGGGGGCCUGGAAGUAUGGACCGGGCAGAGCUCAACACAGCGUGGCAAAGUGGCUGUGGCUAGACUGCCUCUCUGGAUUCCUCGUCACUCAGCAGGGCAUCUCUGAGGGAGAUGCC [U46A U52C A138G A141G] | 1.15
UACGUAGGUGGUUUUCCCCUGAUAGUGCUAAGGGGGCCUGGAAGUAUGGACUGGGCAGAGCACAACACAGCGUGGCAAAGUGGCUGUGGCUAGACUGCCUCUCUGGAUUCCUCGUCACUCAGCGGGGCAUCUCUGGGAGAAAUGCC [U46A U62A A124G A136G] | 0.06
UACGUAGGUGGUUUUCCCCUGAUAGUGCUAAGGGGGCCUGGAAGUAUGGACUGGGCAGAGCACAACACAGCGUGGCAAAGUGGCUGUGGCUAGACUGCCUCUCUGGAUCCCUCGUCACUCAGCAGGGCAUCUCUGAGAGAAAUGCC [U46A U62A U109C] | 0.06
UACGUAGGUGGUUUUCCCCUGAUAGUGCUAAGGGGGCCUGGAAGUAUGGACUGGGCAGAGCUCAACACAGCGUGGCAAAGCGGCUGUGGCUAGACUGCCUCUCUGGAUUCCUCGUCACUCAGCAGGGCACCUCUGAGAGGAAUGCC [U46A U81C U130C A140G] | 0.35
UACGUAGGUGGUUUUCCCCUGAUAGUGCUAAGGGGGCCUGGAAGUAUGGACUGGGCAGAGCUCAACACAGCGUGGCAAAGUGGCAGUGGCUAGACUGCCUCGCUGGAUUCCUCGUCACUCAGCAGGGCAUCUCUGAGAGAAAUGCC [U46A U85A U102G] | 0.08
UACGUAGGUGGUUUUCCCCUGAUAGUGCUAAGGGGGCCUGGAAGUAUGGACUGGGCAGAGCUCAACACAGCGUGGCAAAGUGGCCGUGGCUAGACUGCCUCUCUGGAUUCCUCGUCACUCAGCAGGGCAUCUCUGAGAGUAAUGCC [U46A U85C A140U] | 0.17
UACGUAGGUGGUUUUCCCCUGAUAGUGCUAAGGGGGCCUGGAAGUAUGGACUGGGCAGAGCUCAACACAGCGUGGCAAAGUGGCUGUGGCUAGACUGCCUCACUGGAUUCCUCGUCACUCAGCAGGGCAUCCCUGAGAGAAAUGCC [U46A U102A U132C] | 1.37
UACGUAGGUGGUUUUCCCCUGAUAGUGCUAAGGGGGCCUGGAAGUAUGGACUGGGCAGAGCUCAACACAGCGUGGCAAAGUGGCUGUGGCUAGACUGCCUCUCAGGAUUCCUCGUCACUCAGCAGGGCAUCUCUGAGAGAGGUGCC [U46A U104A A141G A142G] | 1.49
UACGUAGGUGGUUUUCCCCUGAUAGUGCUAAGGGGGCCUGGAAGUCUGGUCUGGGCAGAGCUCAACACAGCGUGGCAAGGUGGCUGUGGCUAGACUGCCUCUCUGGAUUCCUCGUCACUCAGCAGGGCAUCUCUGAGAGAAAUGCC [U46C A50U A79G] | 1.77
UACGUAGGUGGUUUUCCCCUGAUAGUGCUAAGGGGGCCUGGAAGUCUGGUCUGGGCAGAGCUCAACACAGCGUGGCAAGGUGGCUGUGGCUAGACUGCCUCUCUGGAUUCCUCGUCACUCAGCAGGGCAUCUCUGAGAGAAAUGAC [U46C A50U A79G C145A] | 0.76
UACGUAGGUGGUUUUCCCCUGAUAGUGCUAAGGGGGCCUGGAAGUCUGGACUGGGCGGAGCUCAACACAGCGUGGCAAAGUGGCUGUGGCUGGACUGCCUCUCUGGAUUCCUCGUCACUCAGCAGGGCAUCUCUGAGAGUAAUGCC [U46C A57G A92G A140U] | 0
UACGUAGGUGGUUUUCCCCUGAUAGUGCUAAGGGGGCCUGGAAGUCUGGACUGGGCGGAGCUCAACACAGCGUGGCAAAGUGGCUGUGGCUAGACUGCCUCUCUGGAUUCCUCGUCACUCAGCAGGGCAUCUCUGAGAGGAAUGCC [U46C A57G A140G] | 0.64
UACGUAGGUGGUUUUCCCCUGAUAGUGCUAAGGGGGCCUGGAAGUCUGGACUGGGCUGAGCUCUACACAGCGUGGCAAAGUGGCUGUGGCUAGACUGCCUCUCUGGAUUCCUCGUCACACAGCAGGGCAUCUCUGAGAGAAAUGCC [U46C A57U A64U U119A] | 0.03
UACGUAGGUGGUUUUCCCCUGAUAGUGCUAAGGGGGCCUGGAAGUCUGGACUGGGCUGAGCUCAACACAGCGUGGCAAAGUGGCUGUGACUAGACUGCCUCUCUGGAUUCCUCGUCACUCAGCAGGGCAUCUCUGAGAGAAAUGCC [U46C A57U G89A] | 0.02
UACGUAGGUGGUUUUCCCCUGAUAGUGCUAAGGGGGCCUGGAAGUCUGGACUGGGCUGAGCUCAACACAGCGUGGCAAAGUGGCUGUGGCUAGACUGCCUCUCUGGAUUCCUCGUCACUCAGCAGGGCAUCUCCGAGGGAAAUGCC [U46C A57U U134C A138G] | 0.17
UACGUAGGUGGUUUUCCCCUGAUAGUGCUAAGGGGGCCUGGAAGUCUGGACUGGGCAGGGCUCAACACAGCGUUGCAAAGUGGCAGUGGCUAGACUGCCUCUCUGGACUCCUCGUCACUCAGCAGGGCAACUCUGAGAGAAGUGCC [U46C A59G G74U U85A U108C U130A A142G] | 0.17

Variant | self-cleavage
UACGUAGGUGGUUUUCCCCUGAUAGUGCUAAGGGGGCCUGGAAGUCUGGACUGGGCAGUGCUCAACACACCGUGGCAAAGUGGCUGUGGCUAGACUGCCUCUCUGGAUCCCUCGUCACUCAGCAGGGCAUCCCUGAGAGGAAUGCC [U46C A59U G70C U109C U132C A140G] | 0.24
UACGUAGGUGGUUUUCCCCUGAUAGUGCUAAGGGGGCCUGGAAGUCUGGACUGGGCAGAGCUCCACACAGCGUGGCAAAGUGGCUGUGGCAAGACUGCCUCUCUGGAUUCCUCGUCACUCAGCAGGGCACCUCUGAGAGGAAUGCC [U46C A64C U91A U130C A140G] | 0
UACGUAGGUGGUUUUCCCCUGAUAGUGCUAAGGGGGCCUGGAAGUCUGGACUGGGCAGAGCUCGACACAGCGUGGUAAAGUGGCUGCGGCUAGACUGCCUCUCUGGAUUCCUCGUCACUCAGCAGGGCAUCUCUGAGAGAAAUGCC [U46C A64G C76U U87C] | 0.11
UACGUAGGUGGUUUUCCCCUGAUAGUGCUAAGGGGGCCUGGAAGUCUGGACUGGGCAGAGCUCGACACAGCGCGGCAAAGUGGCUGUGGCUAGACUGCCUCUCUGGAUUCCACGUCACUCAGCAGGGCAUCUCUGAGAGAAAUGCC [U46C A64G U73C U112A] | 0.99
UACGUAGGUGGUUUUCCCCUGAUAGUGCUAAGGGGGCCUGGAAGUCUGGACUGGGCAGAGCUCUACACAGCGUGGCAAAGUGGCUGUGGCUAGACUGCCUCUCUGGAUUCCUCGUCACUCAGCAGGGCAUCUCUGAGGGAAAUGCC [U46C A64U A138G] | 0.59
UACGUAGGUGGUUUUCCCCUGAUAGUGCUAAGGGGGCCUGGAAGUCUGGACUGGGCAGAGCUCUAUACAGCGUGGCAGAGUGGCUGUGGCUAGACUGCCUCUCUGGAUUCCUCGUCACUCAGCAGGGCAUCUCUGAGAGAAAUGCC [U46C A64U C66U A78G] | 0.04
UACGUAGGUGGUUUUCCCCUGAUAGUGCUAAGGGGGCCUGGAAGUCUGGACUGGGCAGAGCUCUACACAGCGUGGCAAAGUGGCGGUGGCUAGACUGCCUCUCUGGAUUCCUCGUCACUCAGCAGGGCAUCUCUGAGAGAAAUGCC [U46C A64U U85G] | 0.42
UACGUAGGUGGUUUUCCCCUGAUAGUGCUAAGGGGGCCUGGAAGUCUGGACUGGGCAGAGCUCUACACAGCGUGGCAAAGUGGCUGUGGCUAGACUGCCUCUCUGGAUUCCUCGCCACUCAGCAGGGCAUCUCUGAGAGAAAUGCC [U46C A64U U115C] | 0.71
UACGUAGGUGGUUUUCCCCUGAUAGUGCUAAGGGGGCCUGGAAGUCUGGACUGGGCAGAGCUCAGCACAGCGUGGCAAGGUGGCUGUGGCUAGACUGCCUCUCUGGAUUCCUCGUCACUCAGCAGGGCAUCUCUGAGGGAAAUGCC [U46C A65G A79G A138G] | 0
UACGUAGGUGGUUUUCCCCUGAUAGUGCUAAGGGGGCCUGGAAGUCUGGACUGGGCAGAGCUCAGCACAGCGUGGCAAAGUGGCUGUGGCUAGACAGCCUCUCUGGAUUCCUCGUCACUCAGCAGGGCAUCUCUGAGAGAAAUGCC [U46C A65G U96A] | 0.14
UACGUAGGUGGUUUUCCCCUGAUAGUGCUAAGGGGGCCUGGAAGUCUGGACUGGGCAGAGCUCAGCACAGCGUGGCAAAGUGGCUGUGGCUAGACUGCCUCUCUGGACUCCUCGUCACUCAGCAGGGCAUCUCUGAGAGAAAUGCC [U46C A65G U108C] | 0
UACGUAGGUGGUUUUCCCCUGAUAGUGCUAAGGGGGCCUGGAAGUCUGGACUGGGCAGAGCUCAACGCAGCGUGGCAAAGUGGCUGUGGCUAGACUGCCUCUCUGGAUUCCUCGUCACUCAGCGGGGCAUCUCUGAGGGGAAUGCC [U46C A67G A124G A138G A140G] | 0
UACGUAGGUGGUUUUCCCCUGAUAGUGCUAAGGGGGCCUGGAAGUCUGGACUGGGCAGAGCUCAACGCAGCGUGGCAAAGUGGCUGUGGCUAGACUGCCUCUCUGGAUUCCUAGUCACUCAGCAGGGCAUCUCUGAGAGAAAUGCC [U46C A67G C113A] | 0.35
UACGUAGGUGGUUUUCCCCUGAUAGUGCUAAGGGGGCCUGGAAGUCUGGACUGGGCAGAGCUCAACUCAGCGUGGCAAAGUGGCUGUGGCUAUACUGCCUCUCUGGAUUCCUCGUCACUCAGCAGGGCAUCUCUAAGAGAAAUGCC [U46C A67U G93U G135A] | 0.05
UACGUAGGUGGUUUUCCCCUGAUAGUGCUAAGGGGGCCUGGAAGUCUGGACUGGGCAGAGCUCAACUCAGCGUGGCAAAGUGGCUGUGGCUAGACUGCCUCUCUGGAUUCCUCGUCACUCAGCAGGGCAUCUCAGAGUGAAAUGCC [U46C A67U U134A A138U] | 0.21
UACGUAGGUGGUUUUCCCCUGAUAGUGCUAAGGGGGCCUGGAAGUCUGGACUGGGCAGAGCUCAACACAGCGUGGCGAAGUGGCUGUGGCUAGACUGCCUCUCUGGAUUCCUCGUCACUCAGCAGGGCAUCUCUGUGAGAAAUGCC [U46C A77G A136U] | 1.06
UACGUAGGUGGUUUUCCCCUGAUAGUGCUAAGGGGGCCUGGAAGUCUGGACUGGGCAGAGCUCAACACAGCGUGGCUAAGUGGCGGUGGCUAGACUGCCUCUCUGGGAUCCUCGUCACUCAGCAGGGCAUCUCUGAGGGAAAUGCC [U46C A77U U85G A107G U108A A138G] | 0
UACGUAGGUGGUUUUCCCCUGAUAGUGCUAAGGGGGCCUGGAAGUCUGGACUGGGCAGAGCUCAACACAGCGUGGCAGAGUGGCUGUGGCUAGACUGCCUCUCUGGAUUCCUCGUCUCUCGGCAGGGCAUCUCUGAGAGAAAUGCC [U46C A78G A117U A121G] | 2.36
UACGUAGGUGGUUUUCCCCUGAUAGUGCUAAGGGGGCCUGGAAGUCUGGACUGGGCAGAGCUCAACACAGCGUGGCAGAGUGGCCGUGGCUAGACUGCCUCUCUGGAUUCCUCGUCACUCAGCAGGGCAUCUCUGAGAGAAAUGCC [U46C A78G U85C] | 0.46
